{
  "source": "PubChem BioAssay (NCI)",
  "system": "NCI-H322M lung",
  "test": "NCI anticancer screen, dose series, 48 h",
  "note": "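These data come from cells grown in 96-well plates and exposed to compound for 48 hours at five concentrations. Abbreviation: GI50, concentration required for 50% inhibition of growth. TGI: total growth inhibition.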",
  "data": [
    {"compound": "COC(=O)c1cc(C)ccc1C1CN=NC12Cc1c(C)cc(C)cc1C2=O", "note": "(stereo not given)", "values": [
      {"measurement": "TGI", "result": "> 100", "unit": "µM"}
    ]},
    {"compound": "O=C1CCN2CCC(=O)c3c2c(cc2ccccc32)N1", "values": [
      {"measurement": "TGI", "result": "> 100", "unit": "µM"}
    ]},
    {"compound": "COc1cc(C2c3cc4c(cc3[C@@H](N(C)C)[C@H]3COC(=O)C23)OCO4)cc(OC)c1O", "note": "(stereo not given in full)", "values": [
      {"measurement": "TGI", "result": "> 100", "unit": "µM"}
    ]},
    {"compound": "CN1c2ccccc2S(=O)(=O)n2c(CCc3ccccc3)nnc21", "values": [
      {"measurement": "TGI", "result": "> 100", "unit": "µM"}
    ]},
    {"compound": "CC1(O)CCC2(C)C(=O)C1(C)CCC21OCCO1", "note": "(stereo not given)", "values": [
      {"measurement": "TGI", "result": "> 100", "unit": "µM"}
    ]},
    {"compound": "CNCCNc1nc2ccccc2c2c(=O)c3cc(F)ccc3sc12", "values": [
      {"measurement": "GI50", "result": 1690, "unit": "nM"},
      {"measurement": "TGI", "result": 3.39, "unit": "µM"}
    ]},
    {"compound": "C=CC(OC(C)=O)c1ccc(OC(C)=O)cc1", "note": "(stereo not given)", "values": [
      {"measurement": "TGI", "result": 31.7, "unit": "µM"}
    ]},
    {"compound": "O=c1nc2ccc3sc4ccccc4c(=O)c3n2c(=O)[nH]1", "values": [
      {"measurement": "TGI", "result": "> 100", "unit": "µM"}
    ]},
    {"compound": "COc1cc2c3c(c1OC)C1(C=CC(=O)C=C1)CC3NCC2", "note": "(stereo not given)", "values": [
      {"measurement": "TGI", "result": "> 100", "unit": "µM"}
    ]},
    {"compound": "COC(=O)/C=C1\\C(=O)C=C2[C@@H]3C[C@H]4C[C@H](CC[C@@]4(C)N21)C3(C)NC(C)=O", "note": "(stereo not given in full)", "values": [
      {"measurement": "TGI", "result": 58, "unit": "µM"}
    ]},
    {"compound": "CC1=NN2C(=N)/C(=C/c3ccccc3)C(=O)N=C2S1", "values": [
      {"measurement": "TGI", "result": "> 100", "unit": "µM"}
    ]},
    {"compound": "O=c1[nH]c2cc([N+](=O)[O-])c(Nc3c4ccccc4nc4ccccc34)c([N+](=O)[O-])c2[nH]1", "values": [
      {"measurement": "TGI", "result": 4.99, "unit": "µM"}
    ]},
    {"compound": "Cc1c(C#N)c(=N)oc2ccccc12", "values": [
      {"measurement": "TGI", "result": "> 100", "unit": "µM"}
    ]},
    {"compound": "CNC(=O)N(CCC#N)CCCN(C(=O)N(C)C)c1ccccc1", "values": [
      {"measurement": "TGI", "result": "> 100", "unit": "µM"}
    ]},
    {"compound": "O=[N+]([O-])c1cc(F)ccc1Sc1ccccc1", "values": [
      {"measurement": "TGI", "result": "> 10", "unit": "µM"}
    ]},
    {"compound": "N#C/C(=C1/c2cc([N+](=O)[O-])ccc2-c2c1cc([N+](=O)[O-])cc2[N+](=O)[O-])N1CCCCC1", "values": [
      {"measurement": "TGI", "result": "> 100", "unit": "µM"}
    ]},
    {"compound": "COC(=O)c1cc(-c2ccc(OC)cc2)[nH]c1N/N=C/c1c(Cl)cccc1Cl", "values": [
      {"measurement": "GI50", "result": 1230, "unit": "nM"},
      {"measurement": "TGI", "result": 30, "unit": "µM"}
    ]},
    {"compound": "CC(C(=O)O)c1ccc(-c2ccccc2)c(F)c1", "note": "(stereo not given)", "values": [
      {"measurement": "TGI", "result": "> 100", "unit": "µM"}
    ]},
    {"compound": "CCN(CC)/[N+]([O-])=N/O", "values": [
      {"measurement": "TGI", "result": "> 100", "unit": "µM"}
    ]},
    {"compound": "Cc1nc2c(n1-c1ccccc1)C(=O)c1ccccc1C2=O", "values": [
      {"measurement": "TGI", "result": "> 100", "unit": "µM"}
    ]},
    {"compound": "C=C(CCOC)CCC1CCCCC(=C)[C@H]1O", "note": "(stereo not given in full)", "values": [
      {"measurement": "TGI", "result": "> 100", "unit": "µM"}
    ]},
    {"compound": "COc1ccc([C@@H](O)c2cc(-c3ncnc4cc(N5CCOCC5)ccc34)c(F)cc2Cl)nn1", "values": [
      {"measurement": "GI50", "result": 3040, "unit": "nM"},
      {"measurement": "TGI", "result": 43.6, "unit": "µM"}
    ]},
    {"compound": "COC(=O)[C@H]1[C@H]2C[C@@H]3c4[nH]c5cc(OC)ccc5c4CCN3C[C@H]2C[C@@H](OC(=O)/C=C/c2cc(OC)c(OC)c(OC)c2)[C@@H]1OC", "values": [
      {"measurement": "GI50", "result": 13400, "unit": "nM"},
      {"measurement": "TGI", "result": 47.4, "unit": "µM"}
    ]},
    {"compound": "CCCCN(CC)c1ncnc2ccc(Br)cc12", "values": [
      {"measurement": "GI50", "result": 16100, "unit": "nM"},
      {"measurement": "TGI", "result": 38.7, "unit": "µM"}
    ]},
    {"compound": "CC1(C)C(=O)C=CC2(C)C1CC(O)C1(C)C2CCC2(C)C(c3ccoc3)OC(=O)C3OC321", "note": "(stereo not given)", "values": [
      {"measurement": "TGI", "result": "> 100", "unit": "µM"}
    ]},
    {"compound": "CCn1c(=O)c2c3ccc(OC(C)=O)cc3[nH]c2c2ccc(OC(C)=O)cc21", "values": [
      {"measurement": "TGI", "result": 91.1, "unit": "µM"}
    ]},
    {"compound": "CCOC(=O)Cc1csc(N=Nc2c(O)[nH]c3ccccc23)n1", "values": [
      {"measurement": "TGI", "result": "> 100", "unit": "µM"}
    ]},
    {"compound": "CC1=CC[C@](C)(O)[C@@]2(C)CC[C@H]3C(=C(C)C)C(=O)C[C@]3(C)C[C@H]12", "values": [
      {"measurement": "TGI", "result": "> 50", "unit": "µM"}
    ]},
    {"compound": "CC[C@]1(O)C[C@@H]2CN(CCc3c([nH]c4ccccc34)[C@@](C(=O)OC)(c3cc4c(cc3OC)N(C)[C@H]3[C@@](O)(C(N)=O)[C@H](O)[C@]5(CC)[C@@H]6C[C@@H]6CN6CC[C@]43[C@@H]65)C2)C1", "values": [
      {"measurement": "GI50", "result": 17.4, "unit": "nM"},
      {"measurement": "TGI", "result": "> 33.3", "unit": "µM"}
    ]},
    {"compound": "Cc1c(C(=O)CC(=O)C(=O)Nc2cc(Cl)ccc2Cl)[n+](=O)c2ccccc2n1[O-]", "values": [
      {"measurement": "TGI", "result": "> 100", "unit": "µM"}
    ]},
    {"compound": "CC[C@@]12C=CCN3CC[C@]4(c5cc(NC(=O)COc6cc(OCC(=O)Nc7cc8c(cc7OC)N(C)[C@H]7[C@@](O)(C(=O)OC)[C@H](OC(C)=O)[C@]9(CC)C=CCN%10CC[C@]87[C@@H]%109)cc7oc(-c8ccccc8)cc(=O)c67)c(OC)cc5N(C)[C@@H]4[C@](O)(C(=O)OC)[C@H]1OC(C)=O)[C@H]32", "values": [
      {"measurement": "GI50", "result": 4340, "unit": "nM"},
      {"measurement": "TGI", "result": "> 100", "unit": "µM"}
    ]},
    {"compound": "CCC[CH2][Sn]1([CH2]CCC)[O]C(=O)c2ccc(N)cc2[O]1", "values": [
      {"measurement": "GI50", "result": 1470, "unit": "nM"},
      {"measurement": "TGI", "result": 2.83, "unit": "µM"}
    ]},
    {"compound": "COc1cc2c(cc1O)CCN(C)[C@H]2Cc1ccc(Oc2c(O)c(OC)cc3c2C[C@H]2c4c(c(OC)c(OC)c(OC)c4-3)CCN2C)cc1", "values": [
      {"measurement": "TGI", "result": 9.98, "unit": "µM"}
    ]},
    {"compound": "COC1(OC)C=CC(=O)C=C1", "values": [
      {"measurement": "TGI", "result": 31.3, "unit": "µM"}
    ]},
    {"compound": "Nn1c(Sc2nc3ccccc3c(=O)n2N)nc2ccccc2c1=O", "values": [
      {"measurement": "TGI", "result": 49.7, "unit": "µM"}
    ]},
    {"compound": "O=C1C(Cl)=C(c2ccc([N+](=O)[O-])cc2)C(=O)c2c(O)cccc21", "values": [
      {"measurement": "TGI", "result": 12.2, "unit": "µM"}
    ]},
    {"compound": "Nc1ccc2c(c1)NC(=O)[C@@H]1CCCN1C2=O", "values": [
      {"measurement": "TGI", "result": "> 100", "unit": "µM"}
    ]}
  ]
}
